According to patent US20250127918A1, “SITE-SELECTIVE CONJUGATION OF A PHARMACEUTICAL AGENT TO AN ANTIBODY USING AN AFFINITY PEPTIDE” (priority 2023, published 2025):

How the values were obtained:
[1] = molecular target: T1, Trastuzumab (Homo sapiens, UniProt P01857, D239E/L241M); assay: Bioconjugation handle / GLP1 transfer to trastuzumab, analyzed by Q-ToF LC-MS; type: biochemical; details: for Modifications incorporated into the heavy chain of Tmab: hIgG1 trastuzumab (1 eq.), peptide 20 eq., after 24 h
T1 construct: purchased Syd Labs Inc; MedChemExpress LLC; Bio X Cell
Experimental: The conversion rate for each reaction was calculated by one of the following methods. Determination by LC-MS: Reported yields based on LC-MS spectra were determined by extracting the total ion current (TIC) spectra of all protein-containing species in the chromatogram utilizing Agilent MassHunter 6.0 software with BioConfirm package. These extracted chromatograms were deconvoluted utilizing a maximum entropy algorithm and abundance of each species determined using total ion count.
A reaction solution corresponding to 9.0 μg of IgG was taken into a PCR tube and diluted with Tris buffer (100 mM, pH 8.1) to a final volume of 6 μL. […] Afterward, DTT (200 mM in water, 2 μL) was added, and the mixture was further incubated at 37° C. for 1 hour. Finally, the solution was diluted to a volume of 40 μL with a mixture of water and acetonitrile (95:5), and 8 μL of the diluted solution was injected into LC-MS.
Reactions were performed on a 20 μL scale using 0.2 mL PCR tubes (FIG. 61). First, the electrophile-attached Z33 peptide reagent was dissolved in water to prepare a 2 mg/mL solution. Trastuzumab (MedChemExpress LLC. or Bio X Cell), electrophile-attached Z33 peptide reagent (2 mg/mL), and buffer were added to achieve final concentrations of 10 μM, 200 μM, and values listed in the following table, respectively. If the HEPES was used as a buffer, NaCl solution (4M, 1 uL) was added to the reaction mixture. […] The resulting reaction solution was quenched with a 100 mM glycine buffer of 100 mM Tris buffer and analyzed by LC-MS. Sample preparation for LC-MS analysis was performed in the same manner previously described. […] Therefore, a post-processing step was implemented to remove electrophiles using an Amicon® filter. The reaction mixture was diluted to 200 μL with citrate buffer (100 mM, pH 2.7) and filtered through an Amicon® filter (0.5 mL, 50KMWCO) at 14000 rcf for 7 minutes. After filtration, 400 μL of Tris buffer (100 mM, pH 8.1) was added and centrifuged again. Finally, the remaining solution (roughly 20 μL) on the Amicon® filter was transferred to a microcentrifuge tube, and the Amicon® filter was washed twice with 10 μL of Tris buffer (100 mM, pH 8.1). LC-MS results of electrophile-attached Z33E20C/Hcy reagents are shown in FIG. 51 to FIG. 52E and in Table 7. Unless otherwise provided, “E^20C” refers to that the residue of the 20th amino acid of Z33 (which is an E) is replaced with a substituted or unsubstituted residue of cysteine. Unless otherwise provided, “E20Hcy” refers to that the residue of the 20th amino acid of Z33 (which is an E) is replaced with a substituted or unsubstituted residue of homocysteine (“Hcy”).
The reaction was performed on a 2.1 mL scale using a 1.5 mL microcentrifuge tube. […] The reaction mixture was diluted to 4 mL with citrate buffer (100 mM, pH 2.7) and filtered through an Amicon® filter (4 mL, 50KMWCO) at 3220 rcf for 10 minutes. After filtration, 2 mL of citrate buffer (100 mM, pH 2.7) was added and centrifuged twice, followed by centrifugation with 2 mL of Tris buffer (50 mM, pH 8.0) three times (total of 6 centrifugations). The remaining solution on the Amicon® filter was transferred to a microcentrifuge tube, and the Amicon® filter was washed twice with 40 μL of Tris buffer (100 mM, pH 8.1).
Reactions were performed on a 20 μL scale using 0.2 mL PCR tubes (FIG. 61). First, the electrophile-attached Z33 peptide reagent was dissolved in water to prepare a 2 mg/mL solution. Trastuzumab (Bio X Cell), electrophile-attached Z33 peptide reagent (2 mg/mL), HEPES buffer (pH 8.5), and NaCl solution were added to achieve final concentrations of 10 uM, 200 μM, 100 mM, and 200 mM. […] The resulting reaction solution was quenched with a 100 mM Tris buffer and analyzed by LC-MS (FIG. 53, Table 8).

[2] = molecular target: T1, Trastuzumab; assay: ADC preparation with MMAE transfer reagent (SDS-PAGE); type: biochemical; details: MMAE transfer to Tmab in vitro
Experimental: Reactions were performed on a 20 μL scale using 0.2 mL PCR tubes. […] The final concentrations of HEPES buffer (pH 8.5), NaCl solution, and PBS buffer were 100 mM, 200 mM and 1×, respectively. Tmab (Bio X Cell, 9.2 mg/mL, 1.61 μL) was then added to the reaction solution and incubated at room temperature or 37° C. for hours. The resulting reaction solution was quenched with 100 mM Tris buffer and analyzed by SDS-PAGE.
The reaction mixture corresponding to 3.5 μg of IgG was taken to a PCR tube, and diluted with Tris buffer (100 mM, pH 8.1) to a final volume of 3 μL. Then, Laemmli sample buffer (BIO-RAD, 2×+5% 2-mercaptoethanol, 3 μL) was added, and the mixture was heated at 70° C. for 5 min. After returning the reaction solution to room temperature, 2 μL was loaded onto an SDS-Gel. Subsequently, electrophoresis, washing, staining, and analysis were performed using the methods described in General Information Section.

[3] = test system: db/db mice; details: cited from earlier work
[4] = humans, cited from earlier work
[5] = test system: mouse IgG; assay: Azido transfer to mouse IgG in mouse serum (E1/E2 sandwich ELISA); type: biochemical; details: after 2 h of incubation in mouse sera
[6] = test system: mouse IgG; assay: Azido transfer to mouse IgG in vivo (E1/E2 ELISA of serum); details: subcutaneous injection of 30 mg/kg, WT Swiss mice, serum at 24 h, listed as N3-3-I
Experimental: To evaluate the in vivo azido transfer in mice, two groups of mice were injected subcutaneously or intraperitoneally with the IgG-binder peptides. Mice were sacrificed at 24 hours post-injection, and the blood was collected for ELISA analysis. Sandwich ELISA assays. […] The percentage azido transfer was also compared with intraperitoneal injection of 10 mg/kg Z33-E20Hcy, intraperitoneal injection of 30 mg/kg of Z33-E20Hcy, subcutaneous injection of 30 mg/kg Z33-E20Hcy, and intraperitoneal injection of 30 mg/kg pegylated-Z33-E20Hcy (FIG. 2D).
Two sandwich ELISA assays have been developed in-house, one for the detection of the azido moiety conjugated mouse IgG (mIgG, E1), the other one for the detection of the whole mIgGs (modified and unmodified) in the sample (E2). Both E1 and E2 were run simultaneously on a same plate, using the same initial stock sample, and were processed in parallel at the same time for every steps. […] Absorbances were measured at 450 nm and 540 nm (A0=A450 nm-A540 nm) using a Spark microplate reader (Tecan, USA). The background noise (Ablank) from the serum was subtracted to get the final absorbance of the sample (Asample=A0-Ablank). The ratio Asample (E1)/Asample (E2) was calculated to estimate the percentage of azido transfer on the total amount of IgG in the sample. […]

[7] = molecular target: T1, Trastuzumab; assay: Bioconjugation handle / GLP1 transfer to trastuzumab, analyzed by Q-ToF LC-MS; type: biochemical; details: 10 equivalents
[8] = 100 mM HEPES pH 8.5, room temperature, 24 h

## FNMQQQRRFYEALHD PNLNHcyEQRNAKIKSI RDD [PEL-32]
[1]; 10 + 10 equivalents (at the beginning and after 4 hours), 100 mM HEPES pH 8.7, 37, 24 h
  Light chain total conversion: <1%

## FNMQQQRRFYEALHD PNLNHcyEQRNAKIKSI RDD [PEL-18]
[1]; listed as electrophile II
  Modifications incorporated into the heavy chain of Tmab: 47%

## MMAE
[2]
  Heavy chains of the Fc domain of Tmab modified: up to 55%
  Selectivity: 99%

## AMG-133
[3]; post IP injection of 2 mg/kg
  Persistence of body-weight loss: up to 216 h
[3]; post injection
  Duration of blood glucose reduction: up to 144 h
[4]; post SC injection
  Peak of duration: 4 to 7 days
[4]
  Body weight loss maintained after the last dose: up to 120 days
  Half-life: 14 to 16 days

## FNMQQQRRFYEALHD PNLNHcyEQRNAKIKSI RDD [PEL-20]
[1]; listed as electrophile III
  Modifications incorporated into the heavy chain of Tmab: 47%

## FNMQQQRRFYEALHD PNLNHcyEQRNAKIKSI RDD [PEL-22]
[1]; trastuzumab, 37° C., reagent added in two portions (at 0 and 4 hours)
  Conversion rate: 93%

## H2N-PEG8- FNMQQQRRFYEALHD PNLNHcyEQRNAKIKSI RDD [PEL-30]
[1]; 10 equivalents, 100 mM HEPES pH 8.5, room temperature, 24 h
  Heavy chain total conversion ratio (+1/+2): 95/5
[1]; 10 equivalents, PBS, 37, 24 h
  Heavy chain total conversion ratio (+1/+2): 95/5
  Light chain total conversion: 4%
[1]; trastuzumab, peptides bearing electrophile I (Table 17)
  Conversion: 95%
[5]
  IgG conversion rate in mouse sera: 49±3%
[6]
  Azido transfer to mouse IgG in vivo (conversion rate): 37±4%
[7]; [8]
  Heavy chain total conversion: 95%
  Light chain total conversion: 5%
[7]; PBS, 37, 24 h
  Heavy chain total conversion: 86%

## 5-azido-pentanoyl- FNMQQQRRFYEALHD PNLNHcyEQRNAKIKSI RDD [PEL-09]
[1]; trastuzumab, LC-MS analysis
  Conversion rate: 97%
